Read counts are not given, so values of variants with three or more changes are uncertain.

This is an account of results in the RNAGym collection of RNA variant scans (doi:10.1093/nar/gkz1192).

B1: CPEB3 Ribozyme (parent)
chain: UAACAGGGGGCCACAGCAGAAGCGUUCACGUCGCAGCCCCUGUCAGAUUCUGGUGAAUCUGCGAAUUCUGCUGUAUAUCUC

Variants of B1 are the subject of this data set. The data set is described as follows: self-cleavage, relative activity (ratio to wild type); higher = more cleavage; in vitro, sequencing. In a few lines:
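CPEB3 self-cleaving ribozyme mutant libraries were made by rounds of error-prone PCR, barcoded, and transcribed in vitro with T7 RNA polymerase for 5 hours at 37°C. Cleavage occurred during transcription and a 15 min DNase I step before EDTA stop. RNAs were reverse transcribed with template switching and Illumina-sequenced, with DNA sequencing mapping barcodes to variants. Relative activity is the variant's cleaved/total read fraction divided by wild type's (minimum 5 reads), averaged across three batches.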
As for A45U U60A U66C, the self-cleavage was 0.33.

On to A47U U49C U80C, for which the self-cleavage was 0.52.

Take A47G U60C U69A U76C: the self-cleavage was found to be 0.33.

Regarding U49C C62U U74C U80C, the self-cleavage was determined as 0.16.

Consider A45C U48C U51C A77C, for which the self-cleavage turned out to be 0.03.

As to A45U U58C A77G, the self-cleavage worked out at 0.42.

A45U U51A A65G U76C: the self-cleavage was found to be 0.23.

For A45G A64U A77U, the self-cleavage is 0.16.

For the variant A45U A47G G63U U78C, the self-cleavage amounted to 0.26.

In the case of U43C U69C U74A U78C, the self-cleavage turned out to be 0.32.

Consider U48C C50A A65G U67C U72C, for which the self-cleavage was found to be 0.09.

As to U49C U54C U60C U78C U80A, the self-cleavage came out at 0.05.

Turning to C44G A45U A47G U78A, the self-cleavage is 0.3.

Take U48C U69A U80C: the self-cleavage came out at 0.49.

Turning to U43C U69A A77U U78A, the self-cleavage turned out to be 0.42.

On to A45U U49C U58C A65G U76G, for which the self-cleavage stood at 0.1.

For G46A A57G U58A U67C, the self-cleavage is 0.15.

For U43G U48C U49G, the self-cleavage worked out at 0.43.

With C44U U54C U80C, the self-cleavage was found to be 0.32.

In the case of U49C U67C U80A, the self-cleavage was determined as 0.19.

In the case of A45G U74A C81U, the self-cleavage came to 1.15.

For G46U U54A A64U, the self-cleavage turned out to be 0.17.

On to G46A A47G G63U A77G, for which the self-cleavage was 0.57.

Regarding U49C C62A U72G, the self-cleavage was 0.2.

Consider A45U U48C U58A U76G, for which the self-cleavage amounted to 0.04.

Turning to A45U A56G G73A U80A, the self-cleavage was 0.76.

Turning to U49A U51C U54A, the self-cleavage was determined as 0.86.

As to U48C U58A U78A, the self-cleavage was found to be 0.3.

In the case of A45G A47U A56G U74C, the self-cleavage came out at 0.

Turning to U49A U54C C71U, the self-cleavage was 0.26.

In the case of A47U A57G C59U, the self-cleavage was determined as 0.46.

Turning to C44U U60C A64G, the self-cleavage amounted to 0.11.

Turning to A45C G52A U58C U72G, the self-cleavage came to 0.07.

As to A45U G53A U60C U67A, the self-cleavage was determined as 0.34.

Turning to U43C U58C U67A, the self-cleavage is 0.15.

For A47G U67C C71U C79U, the self-cleavage is 0.16.

In the case of U48G U66C G70C, the self-cleavage was determined as 0.17.

Turning to A45G A56U U60C U72A, the self-cleavage worked out at 0.76.

On to A45G U48C A64G, for which the self-cleavage was 0.16.

A45U U66C U67C: the self-cleavage was found to be 0.08.

For U48C U51C A56G A65G, the self-cleavage is 0.19.

A45G A64G U72A: the self-cleavage is 0.57.

For the variant C50A C59U U78C, the self-cleavage turned out to be 0.26.

A47U U49C A56G: the self-cleavage is 0.53.

On to C44U U48C A56G, for which the self-cleavage was determined as 0.18.

Take C44G U67A A75G: the self-cleavage stood at 0.13.

As for A47G U54A G61A, the self-cleavage is 0.82.

As to A45U U60C A64U U74A A75C, the self-cleavage came out at 0.23.

On to C50U U51A A77G, for which the self-cleavage was determined as 0.82.

For A45U U66C U76C A77G, the self-cleavage is 0.05.

As to A45U U60C U67A U76C, the self-cleavage turned out to be 0.14.

On to U48A U54C U78C, for which the self-cleavage came out at 0.3.

As for U48C U51A U69C, the self-cleavage is 0.16.

As to U43C U67C U78A, the self-cleavage turned out to be 0.11.

With U48C U66C U80A, the self-cleavage came to 0.14.

Turning to A45G U49C U54G A57G G61U, the self-cleavage was found to be 0.

On to U49A U78G C81U, for which the self-cleavage was 0.97.

For the variant A45G U54A A56G U58C U67C U69C G70A, the self-cleavage is 0.17.

For U49C U51C U76A, the self-cleavage stood at 0.37.

Regarding U49A A57G A64G A75C, the self-cleavage turned out to be 0.33.

With A47G U54A U69A U80A, the self-cleavage amounted to 0.24.

For A47G U49A U60C U69A, the self-cleavage came out at 0.11.

G46U A65G U74C: the self-cleavage turned out to be 0.15.

As to U49A U66C A77U, the self-cleavage turned out to be 0.2.

Consider A45G U58C A64G, for which the self-cleavage stood at 0.17.

With U49G U69A U74A, the self-cleavage came out at 0.3.

As to A45G U66C U72C A77G, the self-cleavage worked out at 0.26.

As to U43G U51C U67A U78A, the self-cleavage came to 0.03.

Take U49A U60C G63A A65G U74C: the self-cleavage was determined as 0.11.

For the variant A45G U48C A56U, the self-cleavage is 0.18.

As to A45G U48C A56G, the self-cleavage is 0.19.

Take C50U U51C A77G: the self-cleavage is 1.13.

As to C44U C50A U54A A64G, the self-cleavage was determined as 0.07.

On to A45U A57G U69A, for which the self-cleavage was 0.18.

Regarding G46U A57G U80C, the self-cleavage was 0.21.

On to U48C A57G U78A, for which the self-cleavage was 1.26.

Take U49A U69C U78C: the self-cleavage amounted to 0.27.

For U48C A65G U69C U78A, the self-cleavage worked out at 0.19.

As for C44A U51C U54G A57G U72C, the self-cleavage was determined as 0.28.

As for A45G A57G U67A, the self-cleavage was found to be 0.29.

Turning to U43G U58C A65G U76A, the self-cleavage was determined as 0.08.

On to A45U U51C A64U U72C U74G, for which the self-cleavage was 0.15.

Consider U49C U51C U80G, for which the self-cleavage is 0.24.

Take A47C U60C A75U: the self-cleavage was determined as 0.19.

Turning to U43C U72C U80C, the self-cleavage came to 0.72.

U48C U60A U69A: the self-cleavage amounted to 0.29.

As for A45G U51G U54C U72C, the self-cleavage came to 0.38.

In the case of U43C U51A U54G G55U, the self-cleavage was 0.19.

Turning to A45G U51C U66C A77G, the self-cleavage was 0.24.

For the variant A45G U60A U74C, the self-cleavage was 0.98.

Regarding C44U U60C A64C U78C, the self-cleavage worked out at 0.12.

Consider U43C U58C U72C, for which the self-cleavage was found to be 0.21.

Regarding U48C A57G U58A U60C U72G C79U, the self-cleavage stood at 0.13.

For A47U U72C A75G, the self-cleavage is 0.59.

As for U43C U51A A56U, the self-cleavage came out at 0.29.

As for A45G U54C U60A U69C, the self-cleavage was found to be 0.22.

In the case of A47U G53C U78C, the self-cleavage turned out to be 0.29.

As to A47G U60C A64U, the self-cleavage was determined as 0.34.

In the case of U49C A57U U69C, the self-cleavage turned out to be 0.1.

For U48A A57C G73A, the self-cleavage is 1.05.

Regarding U48C U66C U78C, the self-cleavage amounted to 0.17.

On to U49A A57G U72A U76C, for which the self-cleavage amounted to 0.35.

In the case of A45G U51A U72C U78A, the self-cleavage was 1.15.

With U43G C44G G55U, the self-cleavage was found to be 0.95.

With A45G U51G U69A U72A, the self-cleavage stood at 0.48.

U43C U54C U66A U69C: the self-cleavage stood at 0.09.

Regarding C44G A47G U69C U74C, the self-cleavage is 0.07.

Consider A45U A75U U80A, for which the self-cleavage came to 0.59.

Regarding A47U A56G U67C, the self-cleavage is 0.45.

Consider U49A A56G U80A, for which the self-cleavage is 0.78.

As for U49C U51C U67G U72C G73U U78C U80A, the self-cleavage was determined as 0.19.

For U48C A57U A65G U72C A77G, the self-cleavage was found to be 0.36.

On to U48C U58A U80G C81U, for which the self-cleavage turned out to be 0.1.

Regarding U49C U51A U60C U66C U80C, the self-cleavage turned out to be 0.22.

For A45G U49C A56G A65G U69C A75G, the self-cleavage came out at 0.07.

Regarding U49C A65G U72C U78C, the self-cleavage worked out at 0.12.

For U49A U66A A77G U78A, the self-cleavage was found to be 0.13.

On to A45C U48C U66C U67G, for which the self-cleavage is 0.15.

For A47G U69C G73A A77G, the self-cleavage amounted to 1.09.

On to A45G U54A U72C, for which the self-cleavage worked out at 1.21.

U43C U48C A56G: the self-cleavage was found to be 0.14.

For A45C U67A U78A U80A, the self-cleavage amounted to 0.4.

For the variant U43C U54C A56G, the self-cleavage worked out at 0.17.

For U49C U60A A65U, the self-cleavage is 0.16.

For A45G A47G A64U, the self-cleavage stood at 0.09.

On to A45U U66A C68A, for which the self-cleavage was determined as 0.3.

Turning to U51A A56G U67A, the self-cleavage is 0.33.

A45G U49C U51G U60A G70A C81G: the self-cleavage is 0.18.

For U49C U51A U58A, the self-cleavage was found to be 0.47.

Consider U48C U54G U80C, for which the self-cleavage stood at 0.24.

Turning to U48A A57U U80C, the self-cleavage was 1.21.

In the case of A47G G53C U58C G63A, the self-cleavage amounted to 0.57.

A45G U48A U67C: the self-cleavage was determined as 0.12.

On to U48C U49G U69A U76C, for which the self-cleavage is 0.09.

Take A45G C50U U54G: the self-cleavage was 0.37.

Consider A45U U49C U78C, for which the self-cleavage came to 0.12.

Turning to A45C G52A U72G, the self-cleavage is 0.41.

As to A47G U58A U72A, the self-cleavage came to 0.4.

Consider U49C G53C A64U U74A A75C, for which the self-cleavage was 0.27.

On to U48C U69A A77U, for which the self-cleavage is 0.19.

Turning to U48A G55A U58A, the self-cleavage came out at 0.2.

Consider U43C U54C A64U U67A, for which the self-cleavage is 0.2.

For the variant U49C A64G U66C U78G, the self-cleavage was 0.09.

For the variant U48A U51A U60C U78C, the self-cleavage is 0.14.

On to U49A C68A U69C U74C, for which the self-cleavage amounted to 0.18.

Take U43G A77G U78C: the self-cleavage was 0.2.

As to A47G U48C G55C, the self-cleavage worked out at 0.2.

Consider U49C U58C U66C, for which the self-cleavage is 0.07.

A45U U72A U74C A75G: the self-cleavage worked out at 0.19.

With U48G U58C U72C C79U, the self-cleavage was determined as 0.15.

G46A U49A U78A: the self-cleavage came out at 0.24.

With A45G A47G U60G, the self-cleavage is 0.49.

For U49C C62U U66C, the self-cleavage came to 0.17.

Turning to A47G A56G A64G, the self-cleavage worked out at 0.73.

With A45G U54C U67C C71G U72G U76A, the self-cleavage was 0.07.

For the variant U43C U51C A75U, the self-cleavage worked out at 0.96.

For the variant U43C U69C U78A, the self-cleavage was found to be 0.25.

In the case of A45G A47G A56G U60A U78C, the self-cleavage stood at 0.24.

In the case of A47U U72A A75U, the self-cleavage worked out at 0.45.

A45G A56U U66C U72C: the self-cleavage amounted to 0.22.

As to U48C U66C U72C, the self-cleavage stood at 0.25.

For the variant A47G U49C G63U, the self-cleavage came out at 0.25.

Consider A47G G55U A75G, for which the self-cleavage was determined as 0.48.

On to A45U U60A U69C, for which the self-cleavage was found to be 0.47.

As for U49C U51C U74C U80A, the self-cleavage was determined as 0.38.

On to U49C A65G U69C, for which the self-cleavage turned out to be 0.38.

As to C44A U60C U80C, the self-cleavage turned out to be 0.39.
